# Paper PMC11260493
# Sequences of proteins named here, by UniProt entry; tags and fusion partners are left off. A change or cut given only in a name is not applied to a line headed by its entry. Residues count along the entry.
# UniProt Q7KZF4: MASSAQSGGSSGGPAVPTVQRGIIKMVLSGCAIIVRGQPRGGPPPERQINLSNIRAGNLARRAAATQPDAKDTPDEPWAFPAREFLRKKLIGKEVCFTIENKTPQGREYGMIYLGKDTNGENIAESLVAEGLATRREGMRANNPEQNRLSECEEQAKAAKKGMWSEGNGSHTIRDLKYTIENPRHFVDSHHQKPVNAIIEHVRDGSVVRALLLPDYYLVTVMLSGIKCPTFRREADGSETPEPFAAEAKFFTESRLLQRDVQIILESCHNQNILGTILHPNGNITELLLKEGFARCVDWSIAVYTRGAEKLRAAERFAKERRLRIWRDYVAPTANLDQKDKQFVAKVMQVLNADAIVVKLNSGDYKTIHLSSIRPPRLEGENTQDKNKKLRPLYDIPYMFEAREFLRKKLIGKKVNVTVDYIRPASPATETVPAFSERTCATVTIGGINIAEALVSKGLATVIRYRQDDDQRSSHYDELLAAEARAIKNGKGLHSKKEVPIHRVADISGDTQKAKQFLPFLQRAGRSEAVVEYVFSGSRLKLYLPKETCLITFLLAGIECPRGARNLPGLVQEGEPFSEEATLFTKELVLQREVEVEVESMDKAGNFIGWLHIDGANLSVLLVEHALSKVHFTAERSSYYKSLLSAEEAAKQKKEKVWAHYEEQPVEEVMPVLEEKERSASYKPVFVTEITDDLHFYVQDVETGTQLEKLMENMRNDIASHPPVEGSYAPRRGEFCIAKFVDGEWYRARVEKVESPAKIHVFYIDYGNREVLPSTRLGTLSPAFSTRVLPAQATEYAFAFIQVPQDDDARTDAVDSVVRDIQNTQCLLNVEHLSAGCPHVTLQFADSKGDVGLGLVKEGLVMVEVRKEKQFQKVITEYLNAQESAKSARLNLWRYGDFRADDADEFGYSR
# UniProt O15550: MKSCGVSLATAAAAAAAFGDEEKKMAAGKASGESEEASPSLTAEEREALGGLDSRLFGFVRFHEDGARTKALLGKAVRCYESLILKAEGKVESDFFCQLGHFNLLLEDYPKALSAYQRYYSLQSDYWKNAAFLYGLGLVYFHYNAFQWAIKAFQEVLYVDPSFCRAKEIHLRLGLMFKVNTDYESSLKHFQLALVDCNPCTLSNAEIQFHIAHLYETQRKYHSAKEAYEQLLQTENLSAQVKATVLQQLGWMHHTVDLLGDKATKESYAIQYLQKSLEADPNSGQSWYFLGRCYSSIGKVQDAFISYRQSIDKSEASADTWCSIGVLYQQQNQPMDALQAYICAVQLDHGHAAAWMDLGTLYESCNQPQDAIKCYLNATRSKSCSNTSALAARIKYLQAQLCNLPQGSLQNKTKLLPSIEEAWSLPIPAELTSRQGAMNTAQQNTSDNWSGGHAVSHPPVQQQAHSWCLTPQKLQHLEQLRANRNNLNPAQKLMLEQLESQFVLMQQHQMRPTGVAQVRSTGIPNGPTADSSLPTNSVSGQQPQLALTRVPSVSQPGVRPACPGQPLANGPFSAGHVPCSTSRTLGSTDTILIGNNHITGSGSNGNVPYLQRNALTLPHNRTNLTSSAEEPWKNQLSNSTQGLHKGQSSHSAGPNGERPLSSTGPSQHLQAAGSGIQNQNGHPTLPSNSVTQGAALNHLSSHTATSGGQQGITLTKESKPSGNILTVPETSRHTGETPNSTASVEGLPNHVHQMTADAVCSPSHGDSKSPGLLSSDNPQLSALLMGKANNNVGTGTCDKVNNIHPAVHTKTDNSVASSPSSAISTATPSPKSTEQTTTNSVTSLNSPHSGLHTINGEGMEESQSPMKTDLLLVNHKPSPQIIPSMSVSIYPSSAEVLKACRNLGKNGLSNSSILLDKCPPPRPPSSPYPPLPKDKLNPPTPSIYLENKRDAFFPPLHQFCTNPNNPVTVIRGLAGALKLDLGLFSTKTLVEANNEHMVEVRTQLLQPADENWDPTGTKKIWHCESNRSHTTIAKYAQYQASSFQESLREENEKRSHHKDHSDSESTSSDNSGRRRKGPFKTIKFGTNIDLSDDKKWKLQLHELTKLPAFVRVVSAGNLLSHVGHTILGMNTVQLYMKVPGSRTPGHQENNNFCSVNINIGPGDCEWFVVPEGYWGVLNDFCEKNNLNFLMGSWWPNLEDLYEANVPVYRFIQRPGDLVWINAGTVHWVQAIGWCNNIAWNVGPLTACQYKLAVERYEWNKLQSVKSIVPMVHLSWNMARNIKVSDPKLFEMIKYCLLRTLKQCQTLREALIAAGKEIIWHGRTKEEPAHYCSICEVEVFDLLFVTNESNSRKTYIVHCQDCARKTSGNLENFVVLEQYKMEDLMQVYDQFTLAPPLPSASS
# HA-KDM6A 1-400aa: residues 1-400 of O15550
# HA-KDM6A 400–1000aa: residues 400-1000 of O15550
# UniProt P27694: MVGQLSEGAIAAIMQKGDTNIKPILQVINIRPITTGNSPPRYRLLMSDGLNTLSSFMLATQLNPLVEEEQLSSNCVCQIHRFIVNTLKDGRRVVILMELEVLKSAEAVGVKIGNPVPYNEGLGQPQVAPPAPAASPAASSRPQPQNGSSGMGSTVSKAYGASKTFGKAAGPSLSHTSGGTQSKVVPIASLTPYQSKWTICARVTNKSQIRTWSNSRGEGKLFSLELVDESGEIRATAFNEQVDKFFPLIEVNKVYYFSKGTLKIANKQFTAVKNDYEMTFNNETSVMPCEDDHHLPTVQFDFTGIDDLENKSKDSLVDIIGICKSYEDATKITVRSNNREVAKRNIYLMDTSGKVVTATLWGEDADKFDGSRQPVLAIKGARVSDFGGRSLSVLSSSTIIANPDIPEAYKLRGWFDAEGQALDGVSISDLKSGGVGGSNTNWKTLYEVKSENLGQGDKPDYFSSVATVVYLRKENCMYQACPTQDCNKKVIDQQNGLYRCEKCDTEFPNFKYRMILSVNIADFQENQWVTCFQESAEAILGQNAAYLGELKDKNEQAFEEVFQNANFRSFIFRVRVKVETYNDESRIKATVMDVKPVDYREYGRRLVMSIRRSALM
# UniProt P12004: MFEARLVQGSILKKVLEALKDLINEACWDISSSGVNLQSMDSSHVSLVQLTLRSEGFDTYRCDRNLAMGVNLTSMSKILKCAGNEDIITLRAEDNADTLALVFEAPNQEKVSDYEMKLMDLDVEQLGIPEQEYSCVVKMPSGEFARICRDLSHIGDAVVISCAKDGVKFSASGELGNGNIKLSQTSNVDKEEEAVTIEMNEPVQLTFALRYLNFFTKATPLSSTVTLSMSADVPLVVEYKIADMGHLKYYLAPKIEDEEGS
# UniProt P12956: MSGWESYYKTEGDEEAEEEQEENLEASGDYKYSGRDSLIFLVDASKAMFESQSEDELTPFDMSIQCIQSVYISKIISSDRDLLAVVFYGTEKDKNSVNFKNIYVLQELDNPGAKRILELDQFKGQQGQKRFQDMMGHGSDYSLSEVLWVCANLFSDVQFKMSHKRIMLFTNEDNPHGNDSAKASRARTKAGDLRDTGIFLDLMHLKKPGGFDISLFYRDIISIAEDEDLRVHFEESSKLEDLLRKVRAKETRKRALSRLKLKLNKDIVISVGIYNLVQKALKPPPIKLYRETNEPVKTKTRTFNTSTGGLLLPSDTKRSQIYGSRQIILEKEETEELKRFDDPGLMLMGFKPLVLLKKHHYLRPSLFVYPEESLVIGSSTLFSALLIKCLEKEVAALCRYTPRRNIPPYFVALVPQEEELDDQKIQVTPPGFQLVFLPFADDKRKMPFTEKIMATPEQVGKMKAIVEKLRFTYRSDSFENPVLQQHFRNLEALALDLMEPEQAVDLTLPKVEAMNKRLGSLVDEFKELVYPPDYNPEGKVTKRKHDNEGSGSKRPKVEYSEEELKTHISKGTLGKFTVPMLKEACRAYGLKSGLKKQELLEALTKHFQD
# Results are given in words; binding and its absence hold for the method and conditions named. In cells and extracts the contact can be indirect. Some entries that bind do so weakly or less than the wild type.
# What was measured:
# [1] = molecular target: SND1 (co-IP with Ku70 and PCNA; endogenous or tagged not told) (UniProt Q7KZF4); assay: co-IP; co-IP of Ku70 and PCNA with KDM6A and SND1, with or without CPT (Supplementary Figure S2); cells and constructs not given
# [2] = molecular target: KDM6A (endogenous) (human (endogenous in HEK293T, HeLa, Kyse150, TE1)) (UniProt O15550); assay: co-IP; endogenous proteins, KDM6A antibody, ESCC cells Kyse150 and TE1
# [3] = molecular target: Flag-RPA1 (human (cDNA from HEK293T cells)) (UniProt P27694); assay: co-IP; immunoprecipitation of Flag-RPA1 from HEK293T cells, untreated or treated with HU for 1 h and released into fresh medium; western blot with specific antibodies
# KDM6A D1216N = KDM6A D1216N (UniProt O15550); assay: co-IP; Kyse150 cells co-transfected with the plasmid of SND1 and KDM6A mutants identified in ESCC patients; western blot with specific antibodies
# KDM6A H101D & P110S = KDM6A H101D & P110S (UniProt O15550); assay: as above
# HA-KDM6A = HA-KDM6A (UniProt O15550); assay: co-IP; HEK293T cells transfected with HA-KDM6A and Myc-SND1 constructs; immunoprecipitation and western blot with tag antibodies
# HA-KDM6A 1-400aa = HA-KDM6A 1-400aa (UniProt O15550); assay: as above
# HA-KDM6A 400–1000aa = HA-KDM6A 400–1000aa (UniProt O15550); assay: as above
# [4] = molecular target: KDM6A (bait of the co-IP with mass spectrometry and of the co-IP with Ku70; endogenous or tagged not told) (UniProt O15550); assay: co-IP; co-IP of Ku70 and PCNA with KDM6A and SND1, with or without CPT (Supplementary Figure S2); cells and constructs not given
substance,measurement,setting,value
PCNA (from UniProt P12004 1-261),binding,[1],no binding
"staphylococcal nuclease domain-containing protein 1 (SND1), endogenous (from UniProt Q7KZF4 1-910)",binding,[2],binds
same,binding,[3],binds
SND1 (plasmid co-transfected in Kyse150 cells) (from UniProt Q7KZF4 1-910),binding,KDM6A D1216N,binds
same,binding,KDM6A H101D & P110S,binds
3Myc-SND1 (from UniProt Q7KZF4 1-910),binding,HA-KDM6A,binds
same,binding,HA-KDM6A 1-400aa,binds
same,binding,HA-KDM6A 400–1000aa,no binding
Ku70 (from UniProt P12956 1-609),binding,[4],binds
same,binding,[1],no binding
